# About 150 (0.041%) of roughly 370,000 compounds were called active. The inconclusive results got no clear call from the source; some entries with a clear call stand among them for comparison. Calls come from the whole dose curve; as a rule, active = well fitted inhibition curve with a large enough effect; inconclusive = small, poorly fitted or top-dose-only effect; inactive = flat fitted curve, though single readings scatter. Potencies of inconclusive entries are left out as doubtful fits.
# Target: Beta-lactamase (Escherichia coli (strain K12)) (UniProt P00811)
# Sequence of UniProt P00811 (P00811 whole entry, looked up): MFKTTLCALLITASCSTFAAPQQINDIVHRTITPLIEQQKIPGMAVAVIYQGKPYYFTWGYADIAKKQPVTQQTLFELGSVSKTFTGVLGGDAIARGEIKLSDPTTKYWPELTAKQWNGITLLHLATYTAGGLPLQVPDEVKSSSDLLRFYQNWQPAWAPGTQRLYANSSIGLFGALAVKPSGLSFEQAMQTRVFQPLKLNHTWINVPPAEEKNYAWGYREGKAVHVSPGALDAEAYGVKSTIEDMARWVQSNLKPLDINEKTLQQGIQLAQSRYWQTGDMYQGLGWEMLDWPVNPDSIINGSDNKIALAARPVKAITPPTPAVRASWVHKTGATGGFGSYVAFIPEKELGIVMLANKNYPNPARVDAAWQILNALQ
# Assay: qHTS Inhibitors of AmpC Beta-Lactamase (assay with detergent); note: nearly all actives have a fitted effect of over 25% in size;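 for activity change, negative = inhibition: 0% = no-compound wells and -100% = no-enzyme wells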
# Details: AmpC hydrolysis of nitrocefin, absorbance 480 nm, 0.01% Triton; activity change, negative = inhibition: at 114 µM (top of the series)
# Procedure, shortened: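 AmpC (5.3 nM in the dispensed reagent) in 20 mM phosphate pH 7.0 with 0.01% (detergent screen) or 0.0001% Triton X-100 was preincubated with compounds for 15 min at room temperature. Nitrocefin was then added from an 800 uM solution, and hydrolysis was followed at 480 nm.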
# Potency is the fitted concentration of half-maximal effect; tags give direction and shape of the fitted curve.
Compound,Potency,"activity change, negative = inhibition"
Cc1cccc(C(=O)OCC(=O)Nc2ccc3c(c2)OCCO3)c1O,"inconclusive [inhibitor, full curve, poor fit]",–
O=C(NCc1ccccc1)c1cccc(NC(=O)c2ccco2)c1,–,inactive: -13.1%
O=C(O/N=C1\C(=O)N(c2ccccc2)c2ccccc21)C1CC1,"inconclusive [inhibitor, full curve, poor fit]",–
O=C(CSc1ccccc1)NCCCc1ccccc1,"inconclusive [inhibitor, full curve, poor fit]",–
CCc1ccc(NS(=O)(=O)c2cccc3nsnc23)cc1,"inconclusive [inhibitor, single point]",–
Oc1ccc(/C=N\Nc2nncc(-c3ccccc3)n2)cc1,–,inactive: -4.49%
CC(NC(=O)CCOc1ccccc1)c1ccccc1 (centres undefined),–,inactive: 0.223%
Cc1ccc2cc(CN(CCN3CCCC3)C(=O)Nc3ccccc3)c(=O)[nH]c2c1C,–,inactive: -5.59%
CC(=O)N1c2ccc(S(=O)(=O)NCC3CCC(C(=O)NCCC(C)C)CC3)cc2CC1C (centres undefined),–,inactive: 2.3%
COCCN(C(=O)CSCC(=O)Nc1cccc(C)c1)c1c(N)n(Cc2ccccc2)c(=O)[nH]c1=O,"inconclusive [inhibitor, full curve, poor fit]",–
CCOc1cc(-c2nc3ccccn3c2NCC2CCCO2)ccc1O (centres undefined),"inconclusive [inhibitor, full curve]",–
C[C@H](NC(=O)C1CCN(S(=O)(=O)c2ccccc2)CC1)C(=O)NCc1ccc(Cl)c(Cl)c1,–,inactive: -0.413%
COc1ccccc1Oc1nc2c(c(=O)n(C)c(=O)n2C)n1Cc1cccc(Br)c1,–,inactive: -0.592%
CC(=O)NC(C(=O)c1ccccc1)N1CCCCC1 (centres undefined),"inconclusive [inhibitor, full curve, poor fit]",–
Cc1ccc(C(c2nnnn2CCc2ccccc2)N2CCSCC2)cc1 (centres undefined),–,inactive: -12.9%
COc1ccc2nc(NC(=O)CSc3nc(SC)ns3)sc2c1,–,inactive: -2.33%
CCc1nc2sc3ccccc3c(=O)c2c(=O)n1Cc1ccco1,"inconclusive [inhibitor, partial curve, poor fit]",–
O=C(Nc1cc(S(=O)(=O)N2CCCCC2)ccc1N1CCOCC1)c1ccc(F)cc1,"inconclusive [inhibitor, full curve]",–
CN1C(=O)Cc2cc(S(=O)(=O)CCC(=O)Nc3cccc(C(F)(F)F)c3)ccc21,–,inactive: -0.527%
O=C(O)CCN1C(=O)C2CCCCC2C1=O (centres undefined),"inconclusive [inhibitor, full curve, poor fit]",–
COc1ccccc1C(=O)NCCCNc1ccc([N+](=O)[O-])cc1,"inconclusive [inhibitor, full curve, poor fit]",–
COc1ccc(CN2CCN(C(=O)C3CCC(CNS(=O)(=O)c4ccc(C)cc4)CC3)CC2)c(OC)c1OC (centres undefined),–,inactive: -0.235%

Compound,Potency,"activity change, negative = inhibition"
CCOC(=O)C1CCN(c2nc3ccccc3nc2C(C#N)C(=O)OCCOC)CC1 (centres undefined),"inconclusive [inhibitor, partial curve]",–
COc1cc(C(=O)NCCC(=O)NC(C)C)cc(OC)c1OC,"inconclusive [inhibitor, partial curve]",–
CCCCC(CC)CNC(=O)C1CC=CCC1C(=O)O (centres undefined),"inconclusive [inhibitor, partial curve, poor fit]",–
CC(C)(C)c1ccc(C(=O)Nc2ccccc2C(=O)NCCN2CCOCC2)cc1,"inconclusive [inhibitor, full curve]",–
O=C(Cn1cncn1)NCc1cccc(OC(F)F)c1,"inconclusive [inhibitor, full curve, poor fit]",–
Cc1cc(C)c(C(=O)CSc2nc(C)cc(C)c2C(N)=O)c(C)c1,"inconclusive [inhibitor, partial curve, poor fit]",–
CC(=O)c1cccc(NC(=O)CCc2nc3sc4c(c3c(=O)[nH]2)CCCC4)c1,"inconclusive [inhibitor, full curve, poor fit]",–
O=C(NC(=S)N1CCN(c2nc(-c3ccccc3)cs2)CC1)c1cccnc1,"inconclusive [inhibitor, single point]",–
CC(=O)N1CC(=O)Nc2ccc(Cl)cc2C1c1ccc(F)cc1 (centres undefined),"inconclusive [inhibitor, full curve, poor fit]",–
COc1cccc(/C=N/n2c(-c3n[nH]c4c3CCC4)n[nH]c2=S)c1O,"inconclusive [inhibitor, full curve]",–
O=C(Nc1ccc2c(c1)oc1ccccc12)c1ccncc1,–,inactive: 0.0893%
O=C(Cc1ccc(S(=O)(=O)N2CCOCC2)s1)Nc1ccccc1N1CCCC1,"inconclusive [inhibitor, full curve, poor fit]",–
CC(=O)NC(c1ccco1)c1cc(Br)c2cccnc2c1O (centres undefined),–,inactive: -12.3%
O=C(CCCc1nc(-c2ccccc2Cl)no1)NCc1cccnc1,"inconclusive [inhibitor, full curve, poor fit]",–
CC(C)(C)C(=O)NC1CCN(C(=O)N2CCCC2)CC1,"inconclusive [inhibitor, partial curve]",–
Cc1cccc(N2CCN(S(=O)(=O)c3cc(Br)cc4c3N(C(=O)C3CC3)CC4)CC2C)c1 (centres undefined),–,inactive: -5.04%
CCOC(=O)CSc1nnc(NC(=O)c2cccc([N+](=O)[O-])c2)s1,"inconclusive [inhibitor, single point]",–
CCOC(=O)c1ccc(NC(=O)CSc2nccn2C)cc1,"inconclusive [inhibitor, full curve, poor fit]",–
Cc1ccc(C(C(=O)NC2CCCCC2)N(C(=O)c2csnn2)C2CC2)o1 (centres undefined),"inconclusive [inhibitor, full curve, poor fit]",–
CCCc1ccc(S(=O)(=O)NCc2nnc(SC)n2C)cc1,"inconclusive [inhibitor, full curve]",–
CCOC(=O)CSc1ncnc2c1cnn2-c1ccc(C)cc1C,"inconclusive [inhibitor, full curve]",–
O=C(COc1ccccc1)N=C1SC2CS(=O)(=O)CC2N1c1ccccc1 (centres undefined),"inconclusive [inhibitor, full curve, poor fit]",–

# — PubChem BioAssay AID485294 (National Center for Advancing Translational Sciences (NCATS), 2010)
